Assay results: PubChem BioAssay AID2147 (National Center for Advancing Translational Sciences (NCATS), 2009)
The campaign covered roughly 230,000 compounds. About 3,600 (1.6%) were called active. This list was built around the results that the source calls inconclusive (neither active nor inactive); the mix of calls is not that of the screen. Calls follow the shape of the dose curve; as a rule, active = well fitted inhibition curve with a large enough effect (not every such curve was filed as active); inconclusive = small, poorly fitted or top-dose-only effect, or another doubt; inactive = no such curve, though single readings can be large or run the other way. A potency beside an inconclusive call is a rough fit, not a confirmed value.

What follows are compounds tested against Lysine-specific demethylase 4E (Homo sapiens) (UniProt B2RXH2) (assay: qHTS Assay for Inhibitors of Human Jumonji Domain Containing 2E (JMJD2E)). Details: JMJD2E catalytic domain, FDH-coupled NADH fluorescence (FDH is formaldehyde dehydrogenase); series mostly up to 57.1 µM.
Also: nearly all actives have a fitted effect of over 50% in size.
Potency is read from the fitted curve at half-maximal effect; tags tell the direction and shape of the fitted curve.

Sequence of UniProt B2RXH2 (B2RXH2 whole entry, looked up, the tested form may be a part): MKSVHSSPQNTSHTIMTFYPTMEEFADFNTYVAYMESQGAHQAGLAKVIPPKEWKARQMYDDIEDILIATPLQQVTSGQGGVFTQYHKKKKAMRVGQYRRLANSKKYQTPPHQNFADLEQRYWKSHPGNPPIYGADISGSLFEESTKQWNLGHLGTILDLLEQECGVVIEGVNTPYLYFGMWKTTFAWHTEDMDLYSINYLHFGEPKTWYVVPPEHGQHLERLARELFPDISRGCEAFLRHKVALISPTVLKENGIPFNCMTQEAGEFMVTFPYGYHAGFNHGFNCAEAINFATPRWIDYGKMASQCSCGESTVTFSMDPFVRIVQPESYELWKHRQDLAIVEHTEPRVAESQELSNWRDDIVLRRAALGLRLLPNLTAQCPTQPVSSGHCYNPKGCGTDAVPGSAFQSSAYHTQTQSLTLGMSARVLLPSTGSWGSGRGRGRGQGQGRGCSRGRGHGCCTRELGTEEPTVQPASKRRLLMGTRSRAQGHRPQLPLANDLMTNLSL

| Structure (SMILES) | Potency |
| --- | --- |
| Cc1cccc(S(=O)(=O)NNC(=O)c2cc(-c3ccc(F)cc3)nc3ccccc23)c1 | inconclusive: 35.5 µM [inhibitor, single point] |
| COc1ccc2cc(C3CC(c4ccco4)=NN3S(=O)(=O)c3ccccc3)c(Cl)nc2c1 (configuration not stated) | inactive |
| COc1ccc(-c2nc(CCNC(=O)c3ccc(Br)o3)cs2)cc1 | inconclusive: 35.5 µM [inhibitor, single point] |
| C=CCOC(=O)C1=C(C)NC(=O)NC1/C=C/c1ccccc1 (configuration not stated) | inactive |
| COC(=O)c1[nH]c2ccccc2c1NC(=O)CN1CCN(c2cccc(OC)c2)C(C)C1 (configuration not stated) | inconclusive: 39.8 µM [inhibitor, single point] |
| CCCCCCOc1ccc(-c2ccc(C#N)cn2)cc1 | inconclusive: 31.6 µM [inhibitor, partial curve] |
| O=c1oc2ccccc2cc1-c1nc2ccccc2o1 | inconclusive: 28.2 µM [inhibitor, partial curve] |
| CC(C)(C)CN1CCNC(=O)C1CC(=O)NCCc1ccccc1C(F)(F)F (configuration not stated) | inconclusive: 28.2 µM [inhibitor, single point] |
| COC(=O)c1cnn2c(C(F)(F)F)cc(-c3ccccc3)nc12 | inconclusive: 28.2 µM [inhibitor, partial curve] |
| O=C(Cn1nnc2c(cnn2-c2ccc(F)cc2)c1=O)OC1CCCCC1 | inconclusive: 39.8 µM [inhibitor, single point] |
| COc1ccc(/C=N/NC(=O)c2cc(-c3ccccc3OC)nc3ccccc23)cc1COC(C)=O | inconclusive: 39.8 µM [inhibitor, single point] |
| Cc1cc(C)cc(Oc2coc3cc(OC(=O)c4cccs4)ccc3c2=O)c1 | inconclusive: 39.8 µM [inhibitor, single point] |
| Cc1nc(NCc2ccccc2)c2nc(-c3ccccc3)n(CCN3CCCCC3)c2n1 | inconclusive: 35.5 µM [inhibitor, partial curve] |
| O=C(NCc1ccccc1)C1CCC(CNc2c(N3CCCCC3)c(=O)c2=O)CC1 (configuration not stated) | inactive |
| CC1(C)Cc2nc3oc4c(N(CCO)Cc5ccccc5)ncnc4c3cc2CO1 | inconclusive: 31.6 µM [inhibitor, partial curve] |
| O=C(NCCO)/C(=C\c1cccs1)NC(=O)c1cccs1 | inconclusive: 39.8 µM [inhibitor, single point] |
| CCOc1ccc(-n2c(-c3ccc(Br)cc3)c[n+]3c2CCCCC3)cc1 | inactive |
| CC(C)CC(=O)Nc1nnc(CSCc2ccc(F)cc2)s1 | inactive |
| Cc1cc(NC(=O)CSC2=Nc3ccccc3C3=NC(Cc4ccccc4)C(=O)N23)n[nH]1 (configuration not stated) | inconclusive: 35.5 µM [inhibitor, single point] |
| COc1cc(/C=c2\s/c(=C\C(=O)C(C)(C)C)[nH]c2=O)cc(OC)c1OC | inactive |
| CS(=O)(=O)Nc1ccccc1C(=O)NCCSCc1ccccc1 | inconclusive: 35.5 µM [inhibitor, partial curve] |
| O=C(COc1ccccc1Cl)Nc1ccc(CN2CCCCC2)cc1 | inactive |
| CCCOc1ccc(CSc2ncn[nH]2)cc1 | inconclusive: 39.8 µM [inhibitor, single point] |
| CN(C)CCCN(Cc1cc2cc3c(cc2[nH]c1=O)OCCO3)C(=O)NC1CCCCC1 | inconclusive: 25.1 µM [inhibitor, partial curve] |

| Structure (SMILES) | Potency |
| --- | --- |
| CN1CCC(=NNc2ccc(S(=O)(=O)N3CCOCC3)cc2[N+](=O)[O-])CC1 | inactive |
| CC(C(=O)N1CCCCC1)n1sc2ccccc2c1=O (configuration not stated) | inactive |
| Cc1ccccc1NC(=S)C1=C(O)c2sccc2N(C)S1(=O)=O | inconclusive: 25.1 µM [inhibitor, partial curve] |
| Cc1nn2c(N3CCN(c4ccccn4)CC3)cc(C(C)C)nc2c1-c1ccccc1 | inconclusive: 5.62 µM [inhibitor, single point] |
| Cc1ccc(-c2ccc(=O)n(CC(=O)N3CCN(c4cc(Cl)ccc4C)CC3)n2)cc1 | inconclusive: 39.8 µM [inhibitor, single point] |
| O=C(Nc1ccc2nc(-c3ccccc3)[nH]c2c1)c1ccco1 | inconclusive: 28.2 µM [inhibitor, single point] |
| Cc1cccc(C(CC(=O)NCCc2ccccc2)c2ccccc2)c1O (configuration not stated) | inactive |
| CCC(=O)Oc1ccc2c(C)c(Cl)c(=O)oc2c1 | inconclusive: 28.2 µM [inhibitor, partial curve] |
| COc1cccc(C(=O)/C=C/Nc2ccc(S(=O)(=O)Nc3cccc(C(C)=O)c3)cc2)c1 | inconclusive: 28.2 µM [inhibitor, single point] |
| O=CN(Cc1ccco1)C1(C(=O)NC2CCCCC2)CCCCC1 | inactive |
| COc1ccc2c(c1)cc1n2CCN=C1N | inconclusive: 28.2 µM [inhibitor, single point] |
| O=C1Nc2ccc(Br)cc2C1=Nc1ccc(-c2nnc3n2CCCCC3)cc1 | inactive |
| c1coc(CSCc2cn3cccnc3n2)c1 | inconclusive: 31.6 µM [inhibitor, partial curve] |
| O=C(CSc1ccccc1Cl)c1ccco1 | inactive |
| COc1ccc(F)cc1S(=O)(=O)n1nnc2ccccc21 | inconclusive: 28.2 µM [inhibitor, partial curve] |
| CCCn1c(=O)c2[nH]c(-c3ccc(OCC(=O)NCCN)cc3)nc2n(CCC)c1=O | inconclusive: 28.2 µM [inhibitor, partial curve] |
| CCC(=O)N1CCc2cc(Br)cc(S(=O)(=O)CCC(=O)NCc3ccco3)c21 | inactive |
| CC(C)OCCCn1c(-c2ccco2)nc2nc3ccccc3nc21 | inconclusive: 28.2 µM [inhibitor, partial curve] |
| Fc1ccc(/C=N/n2cnn(Cc3ccccc3Cl)c2=S)cc1 | inactive |
| CCNc1nc(N)nc(Oc2ccc(C(=O)OC)cc2)n1 | inactive |
| O=C(/C=C/c1ccc(O)cc1)c1c(O)cc(O)cc1O | inactive |
| CCCCCCc1cc2cc(-c3nnc(-c4ccccc4O)o3)c(=O)oc2cc1O | inconclusive: 3.98 µM [inhibitor, full curve] |
| O=C(N/N=C/c1ccccn1)c1cc(-c2ccncc2)nc2ccccc12 | inconclusive: 28.2 µM [inhibitor, single point] |
| CCN(c1ccccc1)c1ncnc2c1cnn2-c1ccccc1 | inconclusive: 35.5 µM [inhibitor, single point] |

| Structure (SMILES) | Potency |
| --- | --- |
| CCOC(=O)c1c(-c2ccccc2)csc1NC(=O)CSc1nc(C)cc(C)n1 | inconclusive: 35.5 µM [inhibitor, single point] |
| c1coc(-c2nc3c([nH]2)CCc2nonc2-3)c1 | inconclusive: 39.8 µM [inhibitor, single point] |
| CCCCC(c1nnnn1CS(=O)(=O)c1ccc(C)cc1)N1CCN(c2ccccc2)CC1 (configuration not stated) | inconclusive: 3.55 µM [inhibitor, single point] |
| COc1cc2c(cc1NC(=O)C(C)N1CCN(S(=O)(=O)c3ccc(C)c(C)c3)CC1)oc1ccccc12 (configuration not stated) | inconclusive: 35.5 µM [inhibitor, single point] |
| COc1ccc(-c2cc3nc(C)c(CCC(=O)N4CCN(c5ccccn5)CC4)c(C)n3n2)c(OC)c1 | active: 12.6 µM |
| COc1ccc(/C=C/C(=O)O)cc1S(=O)(=O)NC1CCS(=O)(=O)C1 (configuration not stated) | inconclusive: 25.1 µM [inhibitor, partial curve, poor fit] |
| CC(=O)C1=C(C)NC2(O)c3ccccc3C(=O)C12O (configuration not stated) | inactive |
| CS(=O)(=O)c1ccccc1C(=O)NC1CCCc2ccccc21 (configuration not stated) | inactive |
| N=c1c2c(-c3ccccc3)c(-c3ccccc3)oc2ncn1CCCN1CCOCC1 | inconclusive: 31.6 µM [inhibitor, single point] |
| CN1c2ccccc2C(C)(C)C12C=Nc1c(cc(N3CCOCC3)c3ccccc13)O2 (configuration not stated) | inconclusive: 39.8 µM [inhibitor, single point] |
| CCCCn1c(SCC(=O)NCc2ccco2)nnc1-c1ccco1 | inactive |
| Cc1cc(NC(=O)CSc2nc3c([nH]c4ccccc43)c(=O)n2-c2cccc(C(F)(F)F)c2)no1 | inconclusive: 35.5 µM [inhibitor, single point] |
| CNc1oc(-c2cccc3ccccc23)nc1C#N | inconclusive: 25.1 µM [inhibitor, partial curve] |
| CCn1cc(C(=O)NCCOC)c(=O)c2ccc(C)nc21 | inactive |
| CCOC(=O)CCSc1nc2c(c(C(F)(F)F)c1C#N)CCC2 | inconclusive: 28.2 µM [inhibitor, single point] |
| CC(=O)Nc1ccc2c(c1)CCCN2C(=O)c1ccccc1 | inactive |
| O=C(/C=C/c1ccc(Cl)cc1)NC(=S)Nc1ccc(NC(=O)c2ccco2)cc1 | inactive |
| CC(OC(=O)CCc1nc2ccccc2[nH]c1=O)c1ccccc1 (configuration not stated) | inconclusive: 25.1 µM [inhibitor, partial curve] |
| COc1ccc(/C=C/C(=O)c2cc3c(cc2N)OCO3)cc1 | active: 22.4 µM |
| O=C(Cn1nnc(-c2cc(C(F)(F)F)cc(C(F)(F)F)c2)n1)NNC(=S)Nc1ccc(Cl)cc1 | inconclusive: 39.8 µM [inhibitor, single point] |
| COc1ccc(C2Nc3ccccc3C(=O)N2O)cc1CN1CCOCC1 (configuration not stated) | inconclusive: 39.8 µM [inhibitor, single point] |
| Cc1c(C(=O)N(C)C)c2ccc(Cl)cc2n1O | inactive |
| COc1ccc2nc3oc(C(=O)N4CCN(c5cccc(C(F)(F)F)c5)CC4)cc3cc2c1 | inconclusive: 35.5 µM [inhibitor, single point] |
| CC(Oc1ccccc1)c1ccn[nH]1 (configuration not stated) | inconclusive: 17.8 µM [inhibitor, partial curve] |
